Whole data set: some 33,000 sequences, median “E-score (-0.5 to 0.5)” near -0.021, cut for the highest 2% near 0.32. The list shows a part of the results.
Target: T1, Zap1 (UniProt P47043)
T1 sequence: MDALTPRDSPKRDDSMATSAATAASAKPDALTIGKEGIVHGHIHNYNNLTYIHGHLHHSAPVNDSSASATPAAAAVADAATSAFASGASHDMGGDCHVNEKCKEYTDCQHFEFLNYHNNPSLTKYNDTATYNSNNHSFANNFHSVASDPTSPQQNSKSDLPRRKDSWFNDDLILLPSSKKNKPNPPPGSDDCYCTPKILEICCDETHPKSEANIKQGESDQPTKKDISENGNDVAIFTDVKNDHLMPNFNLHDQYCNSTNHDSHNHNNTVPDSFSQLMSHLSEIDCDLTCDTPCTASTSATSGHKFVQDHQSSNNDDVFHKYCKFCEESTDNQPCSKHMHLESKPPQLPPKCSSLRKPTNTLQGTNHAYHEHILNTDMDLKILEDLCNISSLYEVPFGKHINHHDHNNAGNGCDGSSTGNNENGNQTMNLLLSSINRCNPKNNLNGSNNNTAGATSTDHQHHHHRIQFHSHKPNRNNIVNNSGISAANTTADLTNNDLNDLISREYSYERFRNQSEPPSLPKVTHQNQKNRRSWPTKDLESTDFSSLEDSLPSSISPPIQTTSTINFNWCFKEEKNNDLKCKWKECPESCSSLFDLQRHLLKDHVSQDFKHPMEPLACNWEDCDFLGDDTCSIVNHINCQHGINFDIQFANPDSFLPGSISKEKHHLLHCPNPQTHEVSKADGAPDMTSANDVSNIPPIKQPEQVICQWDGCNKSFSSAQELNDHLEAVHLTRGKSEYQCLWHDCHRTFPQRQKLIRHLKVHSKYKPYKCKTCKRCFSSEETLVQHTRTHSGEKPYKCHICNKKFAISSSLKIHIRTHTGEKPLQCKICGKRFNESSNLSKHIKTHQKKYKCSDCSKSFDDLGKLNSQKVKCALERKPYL
Test: PBM E-score (8-mer binding enrichment) (E-score (-0.5 to 0.5)); higher = stronger / more preferred TF binding; most listed sequences are background and not binding sites
Details: protein concentration: 200 nM; construct: GST-full length
Outline: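 Universal all-10-mer Agilent arrays, fresh or stripped once, were converted to double-stranded form by primer extension. GST-tagged yeast transcription factors from PURExpress in vitro transcription/translation, full-length or DNA-binding domain only, were applied at about 100-200 nM and detected with fluorescent anti-GST. After masliner normalisation, the Universal PBM Analysis Suite scored each ungapped eight-base word together with its reverse complement by E-score.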

Sequence | PBM E-score
CCACTTGA | 0.0482
TCATAAAA | 0.155
AAGCCCTC | -0.0682
CCGCGGGC | 0.0551
CTAAATGA | 0.00253
ATCAAGCC | -0.122
ACACATAC | -0.0756
AAAGTGGT | 0.234
ATCTCTGA | -0.025
CCTAACCG | 0.0149
GCTCTTCC | -0.0754
AAACCGAC | 0.00118
CAAAACGG | 0.099
ACTTGAAG | -0.0917
CGTGCCGC | -0.0682
ACACTGAG | -0.0926
ATTCATCG | -0.0186
GCAAACTA | 0.127
CAGAAACA | 0.267
AATCCGAT | 0.106
GGACTGAA | 0.00449
CCAGTGTC | -0.0887

Sequence | PBM E-score
ACACCTAA | 0.0902
AGCGGTTC | 0.164
ACGGAATG | -0.188
ACAGATGA | -0.133
AACACCCT | 0.288
ACGGGGAA | -0.0799
AAACCAGA | 0.165
AGCGATGC | -0.276
GCGTGGCC | 0.166
ATTGGTAA | 0.188
AGAATCAT | -0.0735
CTCGAGCA | 0.00245
ACAAGTGC | -0.311
CGGCCTTA | 0.0854
CTTCATCC | -0.303
GCACAGAA | -0.0835
ACTGGGAC | -0.0779
AGACGATC | -0.287
CTGCGTTC | 0.0144
CATACCAA | 0.0873
CCGGAGTA | 0.013
GCACAGCA | -0.126

Sequence | PBM E-score
AACAACGT | -0.209
CCCGCGGG | 0.247
ATCGTCTG | -0.168
GGACCGTA | -0.0636
ACGTGCCA | -0.203
GGCGGCCA | -0.00361
ATATTCGG | -0.0284
ATTTACGC | 0.0102
TATACTAA | 0.0714
GCTTGCTA | -0.16
AGTTGAGA | -0.158
CGTCAGTC | -0.206
GGCGCCAA | -0.0708
CGCACACA | -0.112
AAGTTTCA | 0.142
CCCGACCC | 0.136
ACTATATA | 0.177
ACCGACAG | 0.0825
ACCGAGTC | -0.145
CTGATAAA | 0.121
AGGCCCAG | -0.304
GATAGCCA | -0.0965

Sequence | PBM E-score
CATGCTAC | -0.0845
CGTGCCCC | -0.311
CGCTACGA | -0.0679
CTGTGTGC | -0.142
CTCGAACC | 0.0198
CACAGGAG | -0.0885
TAACAGTA | 0.141
ACAGTCAA | -0.0971
CATTGTCG | -0.0394
AACACAAA | 0.195
TCAAAGCA | 0.0311
ACGTTACT | 0.143
AGAGTAAA | 0.106
GCGAGCTA | -0.123
ATAGTAAC | 0.279
GGACGCAA | -0.12
ATGCGTCC | -0.215
CTGTGAAA | 0.194
ATAGTTCG | 0.0342
ACGCACGA | 0.0571
CAGGCTAG | -0.141
CGTGTCAG | -0.0198

Sequence | PBM E-score
AAATTCCT | -0.0586
CCTCCAGC | -0.207
ATATACAT | 0.0702
GAAACTAC | 0.022
CATTGTAG | -0.0629
CTTGTTCC | -0.0975
ATTGTTTA | 0.124
GAACACTA | 0.0651
AGGTATTG | 0.243
ACGACCTC | 0.31
ACCAAAAC | 0.207
ATGTCTCC | -0.249
ACCGGGAG | -0.081
TAACACTA | 0.283
GGACCGGA | 0.0344
AGGACCGG | -0.0908
GAATATCA | -0.106
CTGGACGC | -0.237
CGTGAAGA | 0.00795
GGCAGCCA | -0.0786
CCTTCTTA | -0.0571
CAGATCCC | -0.232

Reference: the supplement of paper PMC3334620
